{
  "source": "the supplement of paper PMC7826260",
  "note": "Some of the results follow. Viral Rep nickase domains cut single-stranded DNA in vitro at 3 µM enzyme and 37 °C for 1 h; the strands have 90 letters, of which the middle is given. The score is log2 (uncut reads / reads without enzyme); more negative means more cut, near 0 not cut, and no call is made. Because reads are shares of a total, they shift together; values above 0 arise when much of the pool is cut.",
  "data": [
    {"test_system": "T1, Rep nickase domain of tomato golden mosaic virus", "T1 sequence (residues 1-124 of Rep, tag left off)": "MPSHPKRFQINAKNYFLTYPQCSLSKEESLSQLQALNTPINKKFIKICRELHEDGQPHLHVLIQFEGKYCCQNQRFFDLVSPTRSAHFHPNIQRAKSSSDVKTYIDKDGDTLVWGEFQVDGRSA", "test": "uncleaved DNA left, log2 of reads against the no-enzyme library (log2 ratio); higher = less cleavage (more negative = more Rep cleavage of the k-mer); sequences stand for … in CTCGTCCG…ACCGGAGA", "method": "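A pool of 90-nt single-stranded DNAs with seven random bases just before the constant AC of the nick site (name = the seven bases) was cut by 3 µM recombinant His6-SUMO-tagged Rep nickase domain (300 nM DNA, 50 mM HEPES pH 8.0, 50 mM NaCl, 1 mM MnCl2, 1 h, 37 °C, three replicates). Uncut DNA was amplified and sequenced.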", "values": [
      {"sequence": "TGTGGCC", "uncleaved DNA left (log2)": -0.0675},
      {"sequence": "CAAGGCT", "uncleaved DNA left (log2)": -0.0353},
      {"sequence": "TCGGGGC", "uncleaved DNA left (log2)": 0.172},
      {"sequence": "AGCAGCG", "uncleaved DNA left (log2)": 0.0202},
      {"sequence": "GAGGCGT", "uncleaved DNA left (log2)": 0.0238},
      {"sequence": "TATTTTG", "uncleaved DNA left (log2)": 0.0725},
      {"sequence": "GTGCCAC", "uncleaved DNA left (log2)": 0.153},
      {"sequence": "CCCATGC", "uncleaved DNA left (log2)": -0.158},
      {"sequence": "CAGTTTA", "uncleaved DNA left (log2)": -0.0172},
      {"sequence": "CGCCGTA", "uncleaved DNA left (log2)": -0.168},
      {"sequence": "CCGGTGG", "uncleaved DNA left (log2)": 0.0632},
      {"sequence": "TTCGCGA", "uncleaved DNA left (log2)": -0.177},
      {"sequence": "ATCGCTC", "uncleaved DNA left (log2)": -0.132},
      {"sequence": "GGTGCGA", "uncleaved DNA left (log2)": -0.2},
      {"sequence": "ACCGCAC", "uncleaved DNA left (log2)": -0.039},
      {"sequence": "CTGTCCC", "uncleaved DNA left (log2)": -0.0783},
      {"sequence": "GATTCAT", "uncleaved DNA left (log2)": -0.014},
      {"sequence": "CATCGGA", "uncleaved DNA left (log2)": -0.0529},
      {"sequence": "GTTCCAC", "uncleaved DNA left (log2)": -0.0133},
      {"sequence": "TGGTCCT", "uncleaved DNA left (log2)": -0.0351},
      {"sequence": "TCTATAG", "uncleaved DNA left (log2)": -0.0429},
      {"sequence": "GGTACCC", "uncleaved DNA left (log2)": 0.0356},
      {"sequence": "AGCACTG", "uncleaved DNA left (log2)": 0.186},
      {"sequence": "GCTACGG", "uncleaved DNA left (log2)": -0.0327},
      {"sequence": "GCGTGGT", "uncleaved DNA left (log2)": -0.0983},
      {"sequence": "GTGGCGA", "uncleaved DNA left (log2)": -0.0196},
      {"sequence": "GTATAGC", "uncleaved DNA left (log2)": 0.047},
      {"sequence": "TCGCTAA", "uncleaved DNA left (log2)": 0.0573},
      {"sequence": "GTCTACT", "uncleaved DNA left (log2)": 0.0245},
      {"sequence": "GGTCAGA", "uncleaved DNA left (log2)": 0.00537},
      {"sequence": "TCGTACG", "uncleaved DNA left (log2)": -0.0552},
      {"sequence": "GGGCAGC", "uncleaved DNA left (log2)": -0.0425},
      {"sequence": "CGCTGGC", "uncleaved DNA left (log2)": -0.152},
      {"sequence": "ATCATGT", "uncleaved DNA left (log2)": -0.116},
      {"sequence": "CAGGCCA", "uncleaved DNA left (log2)": 0.168},
      {"sequence": "CGGACTA", "uncleaved DNA left (log2)": -0.097},
      {"sequence": "GGTCCCA", "uncleaved DNA left (log2)": 0.0751},
      {"sequence": "GATTACC", "uncleaved DNA left (log2)": 0.0363},
      {"sequence": "TAACTTA", "uncleaved DNA left (log2)": -0.254},
      {"sequence": "TCGCAAC", "uncleaved DNA left (log2)": -0.0085}
    ]}
  ]
}
